The campaign covered roughly 71,000 compounds. About 1,800 (2.5%) were called active. The shares of active, inactive and inconclusive entries below differ from those in the screen. The call rests on the fitted dose curve; in most records, active means well fitted activation curve with a large enough effect in the signal ratio, with a control signal flat (not every such curve was filed as active); inconclusive means small, poorly fitted or top-dose-only effect, or effect the other way, or a change in a side signal; inactive means flat fitted curve, though single readings scatter; the % refers to the signal ratio. Potencies of inconclusive entries are doubtful fits and often do not repeat.
test: Cell signaling CRE-BLA (Fsk stim); conditions: CHO CRE-bla reporter (cAMP response element driving beta-lactamase), forskolin EC10, beta-lactamase ratio; activity change, negative = inhibition: at 38.2 µM (top of the series) unless noted; on activity change, negative = inhibition: % of control where 0% means no effect
Outline: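 Forskolin analogue NKH 477 at EC10 stimulated CRE-driven beta-lactamase in CHO cells alongside compound dilution series. Beta-lactamase was measured with CCF4, excitation 405 nm, emission ratio 460/530 nm.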
Potency means the concentration at half of the fitted maximal effect; tags describe the fitted curve by direction and shape.

Row | Compound | Potency | activity change, negative = inhibition
1 | O=c1cc(O)c2c(=O)n(-c3ccccc3)c3ccccc3c2o1 | inactive | 
2 | O=c1c2ccccc2oc2ncccc12 |  | inconclusive: 41.1%
3 | Cn1c(=NC(=O)CSCC(=O)N2CCCCC2)sc2ccccc21 | inconclusive: 1.58 µM [rising, partial curve] | 
4 | C[N+](C)(CCCCCC[N+](C)(C)CCCN1C(=O)c2ccccc2C1=O)CCCN1C(=O)c2ccccc2C1=O | inactive | 
5 | CC(C)Cn1c(N)c(S(=O)(=O)c2cccs2)c2nc3ccccc3nc21 | inconclusive: 10 µM [rising, partial curve] | 
6 | COc1ccc(OC)c(-n2cnnn2)c1 |  | inconclusive: 21.6%
7 | O=C(COC(=O)C1CCCN1C(=O)c1cccs1)Nc1ccc2c(c1)OCO2 (configuration not stated) | inconclusive: 5.01 µM [falling, single point] | 
8 | CCC1C(=O)N=C(SCC(=O)Nc2ccc(C(=O)OC)cc2)NC1=O (configuration not stated) |  | inconclusive: 7.64%
9 | O=C(NCCO)c1ccc2[nH]c3c(c2c1)CCCC3 | inactive | 
10 | CCc1c(C)sc(NC(=O)c2cc(-c3ccco3)on2)c1C#N | inconclusive: 10 µM [rising, partial curve] | 
11 | Cn1nnnc1Sc1nc(-c2cccnc2)nc2ccccc12 | inconclusive: 3.98 µM [falling, partial curve] | 
12 | CC(=O)NCc1ccc(-c2csc(N)n2)s1 |  | inconclusive: 17.2%
13 | c1nc(NCCN2CCOCC2)c2c3c(sc2n1)CCCCC3 | inconclusive: 5.01 µM [rising, partial curve, poor fit] | 
14 | c1ccc2c(c1)OCC(c1nn3cnnc3s1)O2 (configuration not stated) |  | inconclusive: 4.8%
15 | COC(=O)C1=C(N)Oc2cc(C)n(Cc3cccnc3)c(=O)c2C1c1ccc(OC)c(OC)c1 (configuration not stated) | inconclusive: 20 µM [rising, single point] | 
16 | COc1cccc(-c2nc(NCc3cccnc3)c3ccccc3n2)c1 | active: 12.6 µM | 
17 | O=C(CSc1ncnc2c1oc1ccccc12)Nc1ccc2c(c1)OCCO2 | inconclusive: 3.98 µM [rising, partial curve] | 
18 | Cc1cc(C)n2cc(CSc3nnnn3-c3ccccc3)nc2n1 | inconclusive: 12.6 µM [rising, single point] | 
19 | COc1ccc(S(=O)(=O)Nc2ccc(Cl)cn2)c(C)c1C |  | inconclusive: -9.33%
20 | FC(F)(F)c1cc(CN2CCCC3(CCNCC3)C2)cc(C(F)(F)F)c1 | inactive | 
21 | Cc1cc(C)c(C)c(S(=O)(=O)NCc2ccco2)c1C |  | inconclusive: -24.6%
22 | CCOC(=O)N1CCN(C(=O)c2ccc(-n3c(=S)[nH]c4ccccc4c3=O)cc2)CC1 |  | inconclusive: 6.63%
23 | COc1ccccc1-c1cc(C(F)(F)F)nc(S(=O)(=O)CCCC(=O)N2CCOCC2)n1 |  | inconclusive: -28.1%
24 | CCc1nc(OCCN(C)C)c2oc3ccccc3c2n1 | inconclusive: 12.6 µM [rising, partial curve] | 
25 | CN(C)c1ncc2nc(-c3ccccc3)c(=O)n(-c3ccccc3)c2n1 | inconclusive: 5.01 µM [rising, partial curve] | 
26 | COc1cc(Br)cc2cc(C(=O)N3CCCCC3C)c(=O)oc12 (configuration not stated) |  | inconclusive: -10.7%

Row | Compound | Potency | activity change, negative = inhibition
27 | COc1ccc(-n2c(=O)c(-c3cccc(Cl)c3)nc3cncnc32)cc1 |  | inconclusive: 11.3%
28 | COc1ccc(N(CC(=O)Nc2cc(C)on2)S(=O)(=O)c2cc(C)ccc2C)cc1 | inactive | 
29 | O=C(CC1SC(N2CCCCC2)=NC1=O)Nc1cccc(C(=O)O)c1 (configuration not stated) | inactive | 
30 | COC(=O)C1CCN(C(=O)c2cc(OC)c(OC)c(OC)c2)CC1 | inactive | 
31 | CC(CCl)OC(C)CCl (configuration not stated) |  | inconclusive: -4.96%
32 | COc1cc(-c2cc(OC)c3c(C)oc(C)c3c(=O)c2)ccc1O | inactive | 
33 | COc1ccccc1-c1nn2c(C3COc4ccccc4O3)nnc2s1 (configuration not stated) |  | inconclusive: 18.8%
34 | COC(=O)[C@@]1(Cc2ccc(OC)cc2)[C@H]2c3cc(C(=O)N(C)C)n(Cc4ccccc4)c3C[C@H]2CN1C(=O)c1ccccc1 | inactive | 
35 | O=C(NCc1ccco1)C1CCN(S(=O)(=O)N2CCC3(CC2)OCCO3)CC1 | inactive | 
36 | CC(C(=O)NCC1CCCO1)N(C(=O)c1snc(C(N)=O)c1N)c1ccccc1 (configuration not stated) | inactive | 
37 | CCOC(=O)c1[nH]c(C)c(C(=O)N2CCN(C(=O)c3ccco3)CC2)c1C |  | inconclusive: 19.6%
38 | CC(C)CCNc1ncnc2[nH]ncc12 |  | inactive: 6.78% [at 7.6 µM]
39 | COc1cccc(-c2cn3nc(C)c(C)nc3n2)c1 | inconclusive: 25.1 µM [rising, single point] | 
40 | CCOC(=O)c1cc(-c2cccs2)nc2onc(C)c12 | inconclusive: 6.31 µM [rising, partial curve, poor fit] | 
41 | COc1cccc(-c2cc(C(=O)Nc3cccc(O)c3)no2)c1 |  | inconclusive: 17%
42 | CCn1ncc(Cl)c1C(=O)NC(C)c1ccccc1 (configuration not stated) | inconclusive: 3.98 µM [rising, partial curve] | 
43 | CC1(C)CCCC2=C1CC1C(=O)N(Cc3cccnc3)C(=O)C1C2 (configuration not stated) | inconclusive: 0.398 µM [rising, partial curve] | 
44 | COc1cc(OC)cc(-c2nc(-c3ccccc3)no2)c1 |  | inconclusive: 9.63%
45 | CN1CCN(c2nc3c(c(=O)n(C)c(=O)n3C)n2CCSc2nc3ccccc3s2)CC1 | inconclusive: 7.94 µM [rising, partial curve] | 
46 | CCn1c(COc2ccc(C)cc2)nnc1SCC(=O)C(C)(C)C | inactive | 
47 | Cc1cc(C)c(C#N)c(SC2CCCCC2=O)n1 (configuration not stated) | inactive | 
48 | Cc1ccc(NC2c3ncccc3C(=O)N2c2ccccc2C)cc1C (configuration not stated) | inconclusive: 2 µM [falling, full curve, poor fit] | 
49 | COc1cc2c(cc1OC)C(C)N(C(=O)C1COc3ccccc3O1)CC2 (configuration not stated) | inconclusive: 10 µM [rising, single point] | 
50 | CCn1cc(C(=O)NCc2ccc3c(c2)OCO3)c2cc(OC)c(OC)cc2c1=O | active: 2 µM | 
51 | CSc1nc2ccccc2n1C(=O)Oc1ccccc1 | inactive | 
52 | CC(C)(C)OC(=O)N1CC2Cc3[nH]c(=O)ccc3C(C2)C1 (configuration not stated) | inconclusive: 0.0398 µM [rising, full curve, poor fit] | 

— PubChem BioAssay AID662 (National Center for Advancing Translational Sciences (NCATS), 2007)
